# Data from article PMC4336329 (PLoS ONE, 2015).
# About 2,200 (0.71%) of roughly 310,000 compounds showed an effect of 50% or more. Effects have a minus sign here. Some of the results follow.
# Biological target: human ether-à-go-go-related gene (hERG) potassium channel (human, UniProt Q12809)
# Assay: primary screen, population patch clamp on CHO cells stably expressing hERG
# Chain of human ether-à-go-go-related gene (hERG) potassium channel (Q12809 whole entry, looked up): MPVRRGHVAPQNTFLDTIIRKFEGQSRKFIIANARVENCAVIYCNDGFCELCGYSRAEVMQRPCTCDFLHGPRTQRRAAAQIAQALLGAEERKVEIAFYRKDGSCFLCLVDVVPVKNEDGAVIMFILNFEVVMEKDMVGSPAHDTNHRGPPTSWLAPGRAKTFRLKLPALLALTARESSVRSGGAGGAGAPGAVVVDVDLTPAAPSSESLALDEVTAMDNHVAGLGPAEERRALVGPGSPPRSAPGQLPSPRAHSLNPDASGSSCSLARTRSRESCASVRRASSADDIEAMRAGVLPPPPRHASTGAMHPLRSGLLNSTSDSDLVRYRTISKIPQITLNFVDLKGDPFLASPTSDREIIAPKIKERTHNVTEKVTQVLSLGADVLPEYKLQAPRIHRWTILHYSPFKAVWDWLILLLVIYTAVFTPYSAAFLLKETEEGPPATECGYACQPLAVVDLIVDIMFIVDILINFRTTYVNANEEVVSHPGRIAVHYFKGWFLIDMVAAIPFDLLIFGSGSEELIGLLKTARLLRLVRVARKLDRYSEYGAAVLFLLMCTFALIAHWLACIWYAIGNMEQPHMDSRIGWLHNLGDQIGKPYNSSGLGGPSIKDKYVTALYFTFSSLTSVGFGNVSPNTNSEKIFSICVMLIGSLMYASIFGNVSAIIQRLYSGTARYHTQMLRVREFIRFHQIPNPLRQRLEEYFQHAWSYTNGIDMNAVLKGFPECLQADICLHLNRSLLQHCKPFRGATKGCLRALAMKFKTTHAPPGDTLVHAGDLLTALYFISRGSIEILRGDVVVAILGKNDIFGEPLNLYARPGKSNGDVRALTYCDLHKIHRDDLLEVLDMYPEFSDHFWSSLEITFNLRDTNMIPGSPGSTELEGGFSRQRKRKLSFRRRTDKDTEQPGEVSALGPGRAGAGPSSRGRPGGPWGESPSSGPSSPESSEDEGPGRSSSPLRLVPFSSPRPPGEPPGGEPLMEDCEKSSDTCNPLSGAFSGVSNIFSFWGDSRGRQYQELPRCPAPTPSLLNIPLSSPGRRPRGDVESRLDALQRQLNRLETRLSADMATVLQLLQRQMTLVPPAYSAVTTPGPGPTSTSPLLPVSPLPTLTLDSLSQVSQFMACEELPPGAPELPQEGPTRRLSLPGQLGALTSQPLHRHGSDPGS
row,SMILES,"hERG current change (%, negative = inhibition) at 1uM"
1,NC1=C(O)C(=O)C(c2ccccc2)O1 (stereo not drawn),12.1%
2,O=C(Nc1nccs1)C1CCCCN1S(=O)(=O)c1ccccc1 (stereo not drawn),7.25%
3,O=C([O-])c1ccc(N(Cc2ccccc2)S(=O)(=O)c2ccccc2)cc1.[Na+],9.01%
4,C=CCNC(=S)Nc1cccc2ccccc12,4.27%
5,CCCCC1CC(/C(C)=N/NC(N)=O)OC1=O (stereo not drawn),0.545%
6,Cc1[nH]c2ccc3ncccc3c2c1C,13.3%
7,CC(C)C(NC(=O)c1ccc(C(C)(C)C)cc1)C(=O)Nc1cccc(S(N)(=O)=O)c1 (stereo not drawn),5.55%
8,O=C(Nc1nnc(-c2ccco2)s1)C1CCCCC1,0.589%
9,CCOc1ccc(NC(=O)COc2cccc3c2CCN(Cc2cccnc2)C3=O)cc1,-11.6%
10,CCOC(=O)c1cnc2c(c(C)nn2CC)c1NC1CC1,13.4%
11,Cc1ccc(NC(=O)c2ccc(-n3cccn3)nc2)cc1,8.58%
12,COC(=O)c1cc(NC(=O)CN(c2ccccc2OC)S(=O)(=O)c2ccccc2)ccc1Cl,15.1%
13,Cc1cc(NCc2ccccc2)nc2ccccc12,-1.66%
14,COc1nc(-c2cnccn2)sc1C,10.3%
15,S=c1[nH]nc(C2CCCCC2)n1/N=C/c1c(Cl)cccc1Cl,-0.551%
16,CCOc1ccc(N2C(=O)C3C4C=CC(CC4)C3C2=O)c([N+](=O)[O-])c1 (stereo not drawn),-29.2%
17,NS(=O)(=O)c1ccc(NC(=O)COC(=O)c2cnc(Cl)c(Cl)c2)cc1,7.97%
18,CCN(CC)C(=O)C1c2ccccc2Oc2ccccc21,10.4%
19,Cc1ccc(S(=O)(=O)NCc2ccc(C(=O)N3CCc4ccccc4C3)cc2)cc1,5.64%
20,COc1ccc(-c2csc(NC(=O)Cc3ccccc3)n2)cc1OC,12.4%
21,O=C(NCc1ccccc1Cl)C1CCN(C(=O)c2ccco2)CC1,0.815%
22,COc1ccc(CN2CCN(Cc3ccc(Br)cc3)CC2)c(OC)c1OC.O=C(O)C(=O)O,-24.8%

row,SMILES,"hERG current change (%, negative = inhibition) at 1uM"
1,Cc1ccc(NC(=O)CCC(=O)OCC(=O)c2ccc(Oc3ccc([N+](=O)[O-])cc3)cc2)c(C)c1,7.71%
2,CCNCC(=O)Nc1c(C)cccc1C,14%
3,c1ccc2c(c1)[nH]c1c(N3CCOCC3)ncnc12,14.3%
4,O=C(CN(Cc1ccco1)C(=O)Cn1nnc(-c2cccs2)n1)NCc1ccccc1,4.81%
5,CCc1ccc(NC(=O)CCCN2C(=O)C3CC=CCC3C2=O)cc1 (stereo not drawn),6.64%
6,CCCCNC(=O)CCC(=O)Nc1ncc(-c2ccc(C)cc2)n1C,7.43%
7,C[C@@H]1C=C[C@](Cc2ccccc2)(C(=O)NCC2CC2)N1C(=O)c1ccccc1,11.4%
8,O=C(CN1CCOCC1)Nc1cc(C(F)(F)F)ccc1Cl,9.68%
9,Cc1cc(C)c(S(=O)(=O)Nc2ccc(O)cc2)c(C)c1,6.66%
10,c1csc(-c2noc(COc3ccc4c(c3)CCCC4)n2)c1,16.1%
11,O=C(NCC1CCCO1)c1cc(-c2ccco2)nc2ccccc12 (stereo not drawn),10%
12,O=C(COC(=O)c1cnccn1)Nc1ccccc1-c1ccccc1,12.7%
13,CCOc1ccc(CCNC(=O)C2CCN(C(=O)N(C)C)CC2)cc1OCC,5.85%
14,COc1cc(SC)ccc1C(=O)NC1CCCc2ccccc21 (stereo not drawn),12.5%
15,CCN(CC(=O)NCc1ccc(F)cc1)C(=O)c1ccc(C(=O)c2ccccc2)cc1,-6.48%
16,CCOc1cccc2cc(-c3csc(NC(=O)CCC(=O)NCCN4CCCCC4C)n3)c(=O)oc12 (stereo not drawn),-1.56%
17,Cc1cccc(NC(=O)NC(C)C(c2ccccc2)N2CCN(C)CC2)c1 (stereo not drawn),2.61%
18,Cc1ccc(C(=O)N/C(=C/c2cccnc2)C(=O)NCc2ccco2)cc1,-4.21%
19,O=C(Nc1ccccn1)C1CCN(S(=O)(=O)c2ccc3c(c2)OCCCO3)CC1,0.398%
20,Cc1[nH]n(-c2ccccc2)c(=O)c1C(C[N+](=O)[O-])c1ccc(F)cc1 (stereo not drawn),1.46%
21,COC(=O)C1=C(c2cccc(OCc3ccccc3)c2)C[C@@H]2CC[C@H]1N2C(=O)NCCc1ccc(F)cc1,10.3%
22,C1=C(c2ccccc2)Nc2nnnn2C1,17%

row,SMILES,"hERG current change (%, negative = inhibition) at 1uM"
1,CC(C)c1nc(N2CCCC2)c(C#N)c2c1CCCC2,-0.355%
2,Cn1c(N2CCOCC2)nc2c1c(=O)n(Cc1ccc(Cl)c(Cl)c1)c(=O)n2C,-4.67%
3,Cc1cc2nc3n(c2cc1C)CC1CC(C(=O)NCCC(C)C)N(C)C31 (stereo not drawn),9.14%
4,Cc1c(C(=O)Nc2ccc(F)cc2)c2ccccn2c1CCc1ccncc1,9.04%
5,COCCCN1C(=O)c2ccc(C(=O)N3CCN(c4ccccc4OC)CC3)cc2C1=O,-1.95%
6,Cc1c(Cl)c([N+](=O)[O-])nn1CC(=O)NCc1ccc(Cl)cc1,-1.51%
7,O=C(Nc1cc(C(F)(F)F)ccc1N1CCCCC1)c1cccc([N+](=O)[O-])c1,11.3%
8,CC(C)(C)NC(=O)NC(=O)CN1CCN(Cc2ccccc2)CC1,-1.44%
9,O=C(CCCn1c(=O)[nH]c2cc(Cl)ccc2c1=O)NCCN1CCN(c2ccccc2)CC1,-22.9%
10,Oc1ccc(Br)cc1C=Nc1ccc2[nH]ncc2c1,0.641%
11,N#CC1=C(N)SC(N)=C(C#N)C1c1ccnc2ccccc12,20.3%
12,CCOc1ccc(NC(=O)C2C(C(=O)O)C3(Cl)C(Cl)=C(Cl)C2(Cl)C3(Cl)Cl)cc1 (stereo not drawn),11.1%
13,COc1ccc(/C(N)=N/OC(=O)C2CCC(=O)N2S(=O)(=O)c2ccc(C)cc2)cc1 (stereo not drawn),4.8%
14,O=C(CN1C(=O)NC2(CCCCC2)C1=O)Nc1ccc2c(c1)CCC2,14.5%
15,COc1cccc(-c2nc3n(n2)C(c2cccs2)C(C(=O)Nc2cccnc2)=C(C)N3)c1 (stereo not drawn),-51.2%
16,COc1cc(/C=C(/C#N)C(=O)Nc2ccc(C)cc2)ccc1Oc1nc(Cl)ncc1F,6.4%
17,C/C(=N\NC(=O)CCc1ccc(S(=O)(=O)N2CCOCC2)cc1)c1ccc(Br)cc1,8.22%
18,Cc1cccc(Nc2nnc(SCC(=O)NC3CCCc4ccccc43)s2)c1C (stereo not drawn),8.32%
19,C=CCSc1nc2ccccc2c(=O)[nH]1,4.6%
20,O=C(O)COc1ccccc1/C=N/NC(=O)Cc1ccccc1,16.7%
21,Nc1nnc(CC(=O)N/N=C/c2ccc(-c3ccc(Cl)cc3Cl)o2)s1,14.6%
22,CCOC(=O)c1ccc(NC2=CC(=O)CC(c3ccco3)C2)cc1 (stereo not drawn),1.75%

row,SMILES,"hERG current change (%, negative = inhibition) at 1uM"
1,CSc1nc2sc3c(c2c2nncn12)CCC3,1.97%
2,COc1cc(C=O)ccc1OC(=O)c1ccc(C(C)C)cc1,2.89%
3,CCN(C(=O)CSc1nc2ccccc2c(=O)n1Cc1ccc(C)cc1)C1CCS(=O)(=O)C1 (stereo not drawn),-71.4%
4,COc1ccccc1NC(=O)CSc1nnc(CNC(=O)COc2ccc(Cl)cc2)o1,7.08%
5,COc1ccccc1CN(C)C(=O)c1cc2ccccc2o1,10.8%
6,COc1ccc2c(CN3CCN(S(=O)(=O)c4cccs4)CC3)cc(=O)oc2c1,-5.7%
7,Nc1c(C(=O)OCC2CCCO2)c2nc3ccccc3nc2n1C1CCCCC1 (stereo not drawn),16.9%
8,CNC(=O)c1c(NC(=O)CS(=O)(=O)c2ccccc2)sc(C)c1C,9.48%
9,CCOc1ccccc1NC(=O)c1cccc(NC(=O)C(C)C)c1,8.09%
10,CC(C)[C@@H](C(=O)O)N(Cc1cccc(CN([C@H](C(=O)O)C(C)C)S(C)(=O)=O)c1)S(C)(=O)=O,12%
11,Cc1ccsc1/C=N/NC(=O)CNC(=O)c1ccc(S(=O)(=O)N(C)C)cc1,-15%
12,CC(C)(C)NC(=O)Cn1c(SCC(=O)NC2CCCCC2)nc2ccccc21,8.55%
13,Cc1cccc(C)c1NC(=O)Cn1nnc(-c2ccc(CN3CCC(C)CC3)cc2)n1,11.3%
14,CC(Sc1ccc2c(c1)OCCO2)C(=O)Nc1ccc2c(c1)OCO2 (stereo not drawn),9.6%
15,CC(C)C(=O)Nc1ccc(C(=O)NNC(=S)NC(=O)c2ccccc2[N+](=O)[O-])cc1,4.24%
16,COCCCNC(=O)c1ccccc1N(Cc1ccccc1)S(=O)(=O)c1ccccc1,18.3%
17,CCCNC(=O)C(Cc1ccccc1)NC(=O)c1ccccc1 (stereo not drawn),-1.55%
18,CCOC(=O)c1sc2nc(C)nc(SCC(=O)N(CC)C3CCS(=O)(=O)C3)c2c1C (stereo not drawn),8.52%
19,Cc1ccn2c(C(=O)CSc3ccccc3)c(C)nc2c1,11.9%
20,CC(C)(C)c1ccc(N2C(=O)CSC2c2cccnc2)cc1 (stereo not drawn),12.5%
21,CN(Cc1ccccc1)C(=O)c1nc[nH]c1C(=O)N1CCN(C(=O)OC(C)(C)C)CC1,21.8%
